# Reference: PubChem BioAssay AID1240 (Sanford-Burnham Center for Chemical Genomics, 2008)
# The whole screen tested about 50,000 compounds, of which about 800 (1.6%) showed an effect of 50% or more. Some of the results follow.
# Biological target: Bcl-2-like protein 10 (Homo sapiens) (UniProt Q9HD36)
# Test: TR3 peptide-Bcl-B binding displacers, biochemical primary FP assay, phenotype converters (AID 1240);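 note: 0% = Bcl-B with tracer peptide and DMSO and 100% = tracer peptide lacking Bcl-B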
# Conditions: GST-Bcl-B / FITC-TR3 peptide fluorescence polarization; stronger effect = higher value; compound at 3.75 mg/L
# Chain of UniProt Q9HD36 (Q9HD36 whole entry, looked up): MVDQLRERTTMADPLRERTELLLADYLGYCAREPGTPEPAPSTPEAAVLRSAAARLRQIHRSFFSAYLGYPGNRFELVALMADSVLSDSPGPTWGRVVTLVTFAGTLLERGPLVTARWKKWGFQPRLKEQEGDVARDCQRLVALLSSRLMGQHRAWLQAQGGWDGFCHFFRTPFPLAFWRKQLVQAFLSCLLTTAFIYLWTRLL
row,Compound,displacement [%]
1,O=C(N=NC(=O)c1ccco1)c1ccc2c(O)n(N3C(=O)c4ccccc4C3=O)c(O)c2c1,13.5
2,CC1=CC(C)(C)Nc2ccc(OC(=O)c3sc4cc([N+](=O)[O-])ccc4c3Cl)cc21,-8.2
3,O=[N+]([O-])c1ccc(N2CCN(S(=O)(=O)c3ccccc3)CC2)cc1NCCOc1ccccc1,12.7
4,CCCCOc1cccc(C(=O)Nc2ccc(C)cc2[N+](=O)[O-])c1,4.8
5,Cc1cccc(C(=O)Nc2ccc(NC(=O)c3ccccc3)c(C)c2)c1,-9
6,COc1c(Cl)cc(C(=O)Nc2cccc(C(F)(F)F)c2)cc1Cl,3
7,O=C(Nc1nc2ccc(Cl)cc2s1)C(c1ccccc1)c1ccccc1,4.3
8,O=C(Nc1cccc2ccccc12)c1cnn2c1NC(c1ccc3c(c1)OCO3)CC2C(F)(F)F (configuration not stated),3.9
9,NC(=O)C(F)(Cl)c1c(F)c(F)c(F)c(-c2ccccc2)c1-c1ccccc1 (configuration not stated),17.7
10,CCOC(=O)c1c(C)n(C)c2cc(Br)c(C(=O)OC)cc12,13.8
11,Cc1ccc2oc(-c3ccc(N=Cc4cccc(C)c4O)cc3)nc2c1,16.8
12,Cc1ccc(NC(=O)/C=C\C(=O)O)cc1C,13.2
13,C/C(=N\N=C1\NC(=O)C(CC(=O)Nc2ccc(Cl)cc2)S1)C(C)(C)C (configuration not stated),7.8
14,COc1ccc(Cl)cc1C(=O)Nc1cccc2nsnc12,12.8
15,CCOc1ccc(C(=O)Nc2nc3ccc([N+](=O)[O-])cc3s2)cc1,-18.5
16,CN(C)c1ccc(C2C=C(Nc3ccccc3)C(=O)N2c2ccccc2)cc1 (configuration not stated),-24.8
17,O=C1c2ccccc2C(=O)c2c1cccc2N(Cc1ccccc1)C(=O)C(F)(F)F,8.8
18,COc1cc(/C=N/O)ccc1Oc1ccc([N+](=O)[O-])cn1,9.7
19,COc1cc(OC)cc(C(=O)Nc2c(C)ccc3nsnc23)c1,2
20,CC(C)(NO)/C(=N/O)c1ccc(Br)cc1,9.1
21,Cc1cccc(NC(=O)CSc2nc3ccc(C)cc3[nH]2)c1,18.1
22,CC(=O)NS(=O)(=O)c1ccc(NC(=O)c2ccc([N+](=O)[O-])cc2Cl)cc1,-1

row,Compound,displacement [%]
1,Cc1ccc(-c2nc3cc(Cl)cc(Cl)c3o2)cc1NC(=O)Cc1ccccc1,-0.9
2,O=C(CCN1C(=O)/C(=C\c2cccs2)SC1=S)Nc1cccc(C(F)(F)F)c1,2.3
3,Cc1cc(C(=O)NCc2cccnc2)ccc1[N+](=O)[O-],-12.7
4,O=c1oc2cc(O)c([N+](=O)[O-])cc2cc1-c1csc(-c2cc3ccccc3oc2=O)n1,-10
5,COC(=O)c1c(C)oc2ccc(OCc3c(F)cccc3Cl)cc12,91
6,CCOc1ccc2c3c(c(=O)oc2c1OCC)CCCC3,-6.4
7,Cc1cccc(C(=O)Nc2cc(C(F)(F)F)cc(C(F)(F)F)c2)c1,1.8
8,CCOC(=O)CSc1nc(C)c(Cl)c(=O)[nH]1,0.6
9,O=C(Cn1c(O)c(N=NC(=O)C(=O)Nc2ccc([N+](=O)[O-])cc2)c2ccccc21)Nc1ccccc1,-5.7
10,COc1ccc(CNCc2ccc(Cl)cc2)cc1OC,-10.4
11,Cc1ccc(S(=O)(=O)NC(c2ccccc2)c2ccc(Br)cc2)cc1[N+](=O)[O-] (configuration not stated),-9.6
12,C=C(C)CN1CCN(c2c(Cc3ccccc3)c(C)c(C#N)c3nc4ccccc4n23)CC1,5.2
13,CN(C)/C=C\C=C\C(=O)C1C2CC3CC(C2)CC1C3 (configuration not stated),-0.6
14,C=CCN1C(=O)C(Cc2ccccc2)SC1=Nc1ccc(C(=O)O)cc1 (configuration not stated),0.5
15,Cc1ccc(N2C(=O)C(Cl)=C(Nc3ccc(F)cc3)C2=O)c(C)c1,9.2
16,COc1ccc(OC)c(N(CC(=O)NC(C)c2ccccc2)S(C)(=O)=O)c1 (configuration not stated),11.7
17,O=C(Nc1ccc(N2CCOCC2)cc1)c1ccc(-c2ccccc2)cc1,37.6
18,Cc1ccc(C(=O)Nc2ccc(N3CCOCC3)cc2)cc1,-3
19,Cc1ccc(Cl)cc1N(Cc1ccc(C(N)=O)cc1)S(=O)(=O)c1ccccc1,9.1
20,COc1ccc(C(=O)NCc2ccccn2)cc1[N+](=O)[O-],13.5
21,COc1ccc(NC2CC(=O)N(c3ccccc3)C2=O)cc1 (configuration not stated),-11.4
22,Cc1n[nH]c(C)c1CCC(=O)N/N=C/c1c(Cl)cccc1Cl,6.8

row,Compound,displacement [%]
1,O=C(c1ccc(Cl)cc1)c1ccccc1C(=O)N1CCOCC1,1.4
2,O=C(O)COc1ccc(/C=C2\C(=O)NC(=S)N(c3ccc(F)cc3)C2=O)cc1Br,-13.9
3,O=C1NN(c2ccc(F)c(Cl)c2)C(=O)/C1=C\c1ccc(-c2cccc(C(=O)O)c2)o1,10.8
4,CCOC(=O)c1sc(NC(=O)CCN2C(=O)c3cccc([N+](=O)[O-])c3C2=O)c(C(=O)OCC)c1C,6
5,CS(=O)(=O)N1CCN(Cc2ccc(Br)cc2)CC1,1.7
6,C(=N\Nc1ccccn1)/c1cccs1,-4.2
7,CCOC(=O)C1=C(C)NC2=C(C(=O)CCC2)C1c1ccc(I)cc1 (configuration not stated),2.3
8,COc1ccc(Br)cc1/C=C/C(=O)Nc1ccc(OC(F)(F)F)cc1,0.8
9,COc1cccc(NC2=C(Cl)C(=O)N(c3ccc(Br)cc3)C2=O)c1,13.4
10,COc1cc2c(cc1OC)C(=S)NC1(CCCC1)C2,-7
11,CCOC(=O)c1ccccc1NC(=O)CN(c1ccc(C)cc1)S(=O)(=O)c1ccc(SC)cc1,5
12,O=C(/C=C\Nc1ccccn1)c1ccccc1,6.6
13,CN(C)c1ccc(C=Nc2nonc2N)cc1,-9
14,O=C(O)COc1ccccc1C1OC2CCCCC2C2=CCCCC21 (configuration not stated),10.9
15,O=[N+]([O-])c1cccc(S(=O)(=O)NCc2cccnc2)c1,-3.2
16,CCOc1ccc(NC(NC(=O)CN2C(=O)c3ccccc3S2(=O)=O)C(Cl)(Cl)Cl)cc1 (configuration not stated),10.3
17,COc1ccc(NCN2C(=O)CSC2=O)cc1,9.8
18,O=C(C1CN(S(=O)(=O)c2ccccc2)CCN1S(=O)(=O)c1ccccc1)N1CCCCCC1 (configuration not stated),-5.5
19,NC(=O)C1CCN(C(=O)c2ccc([N+](=O)[O-])cc2)CC1,4.4
20,Cc1ccc(/C(N)=N/OC(=O)/C=C/c2ccccc2)cc1,4.6
21,COc1ccc(S(=O)(=O)NNC(=O)c2ccc(OC)c(OC)c2)cc1,-8
22,O=C(c1ccc(-c2ccccc2)cc1)N1CCN(C(=O)c2cccs2)CC1,11.9

row,Compound,displacement [%]
1,CC(C)c1ccccc1NC(=O)/C=C/C(=O)O,1.7
2,Clc1ccc(CN2C3=NCCCN3c3ccccc32)cc1,5
3,Cc1cc(NC(=O)c2ccc(-c3ccc(Br)cc3)o2)ccc1NC(=O)c1ccco1,-2.6
4,Cc1ccc(S(=O)(=O)N(C)Cc2ccccc2)cc1[N+](=O)[O-],4.9
5,CCOC(=O)c1sc(NC(=O)COc2ccc(C)cc2C)c(C(=O)OCC)c1C,10.1
6,Cc1ccc(C(=O)N/C(=C/c2ccc(-c3ccccc3[N+](=O)[O-])o2)C(=O)NCc2ccco2)cc1,37.2
7,Cc1c(N2C(=O)CCCC2=O)c(=O)n(-c2ccccc2)n1C,5.3
8,CCOC(=O)c1c(NC(=O)/C=C/c2cc(OC)ccc2OC)sc2c1CCC2,-2.1
9,CCOC(=O)/C=C(\C)Nc1cc(-c2ccc(Br)cc2)[nH]n1,-8.4
10,O=C(CCCOc1ccc(Cl)cc1Cl)Nc1ccc(S(=O)(=O)Nc2nccs2)cc1,11.8
11,CCN1C(=O)/C(=C\c2cn(CCOc3ccc(Br)cc3)c3ccccc23)SC1=S,1.9
12,O=C(Nc1ccccc1Br)c1cc(-c2cccs2)nc2ccccc12,0.4
13,CS(=O)(=O)N1CCN(Cc2cccnc2)CC1,-9.8
14,Cc1cc(OCC(=O)N2CCN(c3ccc([N+](=O)[O-])cc3)CC2)ccc1Br,3.2
15,COc1ccc(/C=C2/SC(=S)N(CC(=O)Nc3ccc(O)cc3)C2=O)cc1OC,9.4
16,O=C(c1cnn2c1NC(c1cccs1)CC2C(F)(F)F)N1CCSCC1 (configuration not stated),-0.6
17,O=[N+]([O-])c1ccc(NCCCN2CCOCC2)c(Cl)c1,12.3
18,Cc1cc(C(=O)NC(C)Cc2ccccc2)cc(C)c1N (configuration not stated),-1.4
19,CSC1=C(C#N)C(c2cccs2)CC(=O)N1 (configuration not stated),-12.2
20,COc1ccc(-c2cc(=O)oc3c(C)c(OC(C)=O)ccc23)cc1,-5.1
21,NC(=O)NC(c1ccccc1)c1ccc(Cl)cc1 (configuration not stated),-3.4
22,Cc1ccc(/C(N)=N/OC(=O)COc2ccc3ccccc3c2)cc1,-3.9

row,Compound,displacement [%]
1,Cc1ccc(CN2CCN(N=Cc3cccc(Br)c3)CC2)c(C)c1,12.4
2,COc1ccc(CC(=O)O/N=C(\N)c2ccc(C)cc2)cc1OC,-0.5
3,COc1ccc(Cl)cc1NC(=O)c1ccccc1N(Cc1ccccc1)S(=O)(=O)c1ccc(C)cc1,3.2
4,O=C(/C=C/c1cccc(C(F)(F)F)c1)Nc1ccc([N+](=O)[O-])cc1,11.8
5,COC(=O)c1cc(NC(C)=O)c(C)c(NC(C)=O)c1[N+](=O)[O-],-12.6
6,COc1cc(NC(=O)S(=O)(=O)c2ccccc2)ccc1NC(=O)c1ccco1,0.7
7,CC(C)C(=O)Nc1ccc(I)cc1Cl,11.1
8,O=C1N=c2ccccc2=C1c1sc(=S)n(NC(=O)c2ccccc2Br)c1O,-9.4
9,Nc1nc(-c2cccc([N+](=O)[O-])c2)cs1,-8.1
10,O=C(CCNc1ccc(Cl)c(C(F)(F)F)c1)c1ccco1,-1.4
11,CC(C)(C)c1ccc(C(=O)Nc2ccc(NC(=O)COc3ccccc3Cl)cc2)cc1,-2.3
12,O=C(Nc1ccc2c(c1)oc1ccccc12)c1cccs1,9.7
13,CCCN(CCC)C(=O)c1c(NC(=O)c2cccs2)sc2c1CCCCC2,10.5
14,CCOC(=O)C(=O)Nc1ccc(C(N)=O)cc1,13.6
15,COc1cc(NC(=O)c2cccs2)ccc1NC(=O)c1ccco1,11.7
16,Cc1nn(-c2ccccc2)c2c1C(c1c(Cl)cccc1Cl)C(C#N)=C(N)O2 (configuration not stated),-10.1
17,CCN=C1SC(CC(=O)Nc2ccc(N3CCCCC3)cc2)C(=O)N1CC (configuration not stated),-2.2
18,COc1ccccc1CNC(=O)COc1ccc(Cl)cc1Br,-8
19,O=c1/c(=C\c2ccc(-c3cccc(Br)c3)o2)sc2nc3ccccc3n12,11.2
